Test results as given in the DeepSol protein solubility set.

Assay: soluble on expression in E. coli; label from the status in PepcDB or PDB records

Row | Sequence | soluble on expression in E. coli
1 | GASCDSFNEDLPECRLSVKFKYDYNMEFADAFHAQVDKVELYVFDKNGKYLFKQAEEGSALSTGNYLMEVELPVGQYQFMAWAGARDSYDITSLTPGVSTLTDLKLKLKREASLIINKRMETLWYGEVINVNFDGTVHQTETINLIRDTKIVRFGFQSYTGSWTLDMNDYDYEIIESNGHLGHDNSLLDDDVLSFRPYYMEQKDPATAYVDMNTMRLMEDRKTRLVLTEKASGKRVFDINLIDYLAMTNAEGKNLSTQEYLDRQSNYHIIFFLSESWLAVQIVVNGWVHRIQEENQ | soluble
2 | MSLTNLDFHIVKRIRQRIAQGGDNAALKHKQNGQWQAINWHQFGEQLDELSMALLAQGIGVQDKIAIFSNNMPRWTIADFAALQIRAVTVPIYPTNTPEQAAYILQNADVKVVFVGEQAQFDAALSQFEQCPELRLIVAMNANIDLKQASCAMHWDEFVAQSHHQDRAPLDALIEQANYDDLFTLIYTSGTTGTPKGVMLDYRNIGAQLEGHDQRLNLTQEDVSLCFLPLSHVFERAWTAYVLYKGATNCYLQDVAHVREALAEVRPTVMCAVPRFYEKIFSAIHEKVVKAPLVRKVLFTWAVNMGAKMAVCRQQQRQPSWMLKQSHQFADKLVLSKLRALLGGRINFMPCGGAKLDETIGRFFHAIGINVKLGYGMTETTATVSCWDDHCFNPDSIGLSMPGAQVKIGENNEILVRGPMVMRGYYKLDKETTESFDEQGFLKTGDAGHIDENGNLFITDRIKELMKTSGGKYIAPQVIEGAIGKDHFIEQIAVIADTRKFVSALIVPCFDSLEEYAKELNIKYHDRLELIKHSQVLEMFEKRVNELQKELAKFEQVKKFRLLPKAFSMDSGELTPTQKLRRKVINDRYQDEIEEMYQDSPKKEGHHHHHH | not soluble
